According to PubChem BioAssay AID463173 (ICCB-Longwood Screening Facility, Harvard Medical School, 2010):
The campaign covered roughly 52,000 compounds. About 4,300 (8.3%) were called active. Cut-off read from the data, not from the text of the source: active = survival mostly below about 52% (no sharp cut-off); inactive = mostly above about 56%. The list shows a part of the results.

System: DeltatarO mutant
Assay: S. aureus survival, RN4220 and DeltatarO strains – OD600, teichoic acid synthesis inhibitors, primary screen (AID 463173)
Conditions: S. aureus RN4220 wild type/DeltatarO growth, OD600, 18 h, stronger effect = lower value, screened at 18.75 µg/mL (by protocol)

For `CCN(CC)c1cc2c(cc1F)c(=O)c(S(=O)(=O)c1ccccc1)cn2Cc1ccccc1`, which survival is on record?
Its survival is inactive: 77%.

Which survival does the source give for `COc1ccc(CCNC(=O)NCc2noc3ccc(C)cc23)c(OC)c1` here?
The survival was inactive: 62%.

How did the survival turn out when `CCOC(=O)c1c(S(=O)(=O)NCC(=O)N2CCN(c3ccccc3OC)CC2)c(C)n(C)c1C` was run?
Its survival is inactive: 77%.

How did the survival turn out when `CC(=O)c1cccc(NS(=O)(=O)c2c(C)nc3sc(C)cn3c2=O)c1` was run?
The survival was inactive: 63%.

Which survival does the source give for `CCOC(=O)c1cccc(NC(=O)CCCn2c(C)c3cnn(-c4ccccc4)c(=O)c3c2C)c1` here?
Its survival is inactive: 58%.

How did the survival turn out when `Cc1cccc(-n2ncc(C(=O)N3CCC(C)CC3)c2C2CCN(C(=O)OC(C)(C)C)CC2)c1` was run?
Its survival is inactive: 89%.

For `Cc1ccc(CNC(=O)CCC(=O)N2CC(C)Sc3ccccc32)cc1` (centres undefined), which survival is on record?
The survival was active: 45%.

How did the survival turn out when `CCCCn1c(CNC(=O)c2ccc(OC)cc2)nnc1SCC(=O)Nc1ccccc1` was run?
The survival was inactive: 76%.

`Cc1ccc(NC(=O)c2cc3c(=O)[nH]c4ccccc4c3n2C)cc1F` was tested. Which survival did it give?
The survival was inactive: 83%.

Which survival does the source give for `O=S(=O)(Nc1ccc(-c2ccc(N3CCCC3)nn2)cc1)c1ccc(Br)cc1` here?
Its survival is inactive: 94%.

With `COc1ccc(C(=O)NCC(c2cccs2)S(=O)(=O)c2ccc(C)cc2)cc1` (centres undefined) as the compound, how does the survival read?
Its survival is inactive: 100%.

How did the survival turn out when `CCc1ccccc1Nc1nn2c(=O)c3ccc(C(=O)Nc4cc(C)cc(C)c4)cc3nc2s1` was run?
Its survival is inactive: 77%.

Which survival does the source give for `Cc1cc(N2CCC(C)CC2)nc2ccc(NC(=O)CCC(=O)N3CCN(c4cccc(C(F)(F)F)c4)CC3)cc12` here?
The survival was active: 31%.

With `CCOC(=O)c1cnc(-c2ccccc2)nc1Nc1ccc(C)cc1` as the compound, how does the survival read?
The survival was inactive: 90%.

With `CCOC(=O)c1sc2ncn(CC(=O)Nc3ccc(C)cc3C)c(=O)c2c1C` as the compound, how does the survival read?
Its survival is inactive: 69%.

How did the survival turn out when `Cc1cc(C)c(/C=C/c2onc(C)c2S(=O)(=O)N2CCC(C(=O)N3CCN(c4ccccc4)CC3)CC2)c(C)c1` was run?
The survival was inactive: 88%.

For `CC1CCc2nc3ncn(CC(=O)Nc4cccc(C#N)c4)c(=O)c3cc2C1` (centres undefined), which survival is on record?
Its survival is inactive: 94%.

With `COc1cccc(NC(=O)c2cn(C3CCCCC3)c(=O)c3c2c2ccccc2n3C)c1` as the compound, how does the survival read?
The survival was inactive: 75%.

Which survival does the source give for `CCCCNC(=O)C(CC)Sc1nnc(-c2ccc(OC)c(OC)c2)c(-c2ccc(OC)c(OC)c2)n1` (centres undefined) here?
Its survival is inactive: 93%.

How did the survival turn out when `COc1ccccc1-c1nn(CCC(=O)Nc2cccc(C(C)=O)c2)c2nc(C)cc(C)c12` was run?
The survival was inactive: 69%.

With `COc1ccc(S(=O)(=O)N(CC(=O)N2CCC(C)CC2)c2ccc(C)cc2)cc1` as the compound, how does the survival read?
The survival was inactive: 67%.

Which survival does the source give for `Cc1ccc(NCc2nnc3n2CCCCC3)cc1Cl` here?
The survival was inactive: 99%.

`CCOCCCNC(=O)CCc1nnc2ccc(N3CCN(c4cccc(OC)c4)CC3)nn12` was tested. Which survival did it give?
Its survival is inactive: 103%.

How did the survival turn out when `CCOC(=O)c1ccccc1NC(=O)CCc1c(C)nc2ncnn2c1C` was run?
The survival was inactive: 87%.

With `Cc1ccc2c(=O)cc(C(=O)Nc3nnc(C)s3)oc2c1` as the compound, how does the survival read?
Its survival is inactive: 76%.

For `CCn1nc(-c2ccccc2)c(-c2ccccc2)c(C(=O)OCCOC)c1=O`, which survival is on record?
Its survival is inactive: 54%.

With `CN1C(C(=O)Nc2ccc(F)cc2F)=CC(c2cccs2)=NS1(=O)=O` as the compound, how does the survival read?
The survival was inactive: 99%.

`O=C(N/N=C/c1cccc2c1OCCO2)c1ccc(CN2CCOCC2)cc1` was tested. Which survival did it give?
The survival was inactive: 82%.

With `Cc1oc(-c2ccccc2)nc1CNC(=O)Nc1ccccc1` as the compound, how does the survival read?
Its survival is inactive: 74%.

`CCOC(=O)C1=C(CN2CCC(C(=O)OCC)CC2)NC(=O)NC1c1ccc(Cl)cc1` (centres undefined) was tested. Which survival did it give?
The survival was inactive: 111%.

`Cc1nn(C)c2c1c(C(F)(F)F)cc(=O)n2CC(=O)NCc1ccccc1Cl` was tested. Which survival did it give?
Its survival is inactive: 80%.

`Cc1cc(F)ccc1NC(=O)c1sc2nc(-c3cccs3)ccc2c1N` was tested. Which survival did it give?
The survival was active: 45%.

With `O=C(NCc1ccccc1Cl)C1CCCN1C(=O)NCc1ccccc1` (centres undefined) as the compound, how does the survival read?
The survival was inactive: 81%.

How did the survival turn out when `CCOc1ccccc1NC(=O)C(C)Sc1nc2c(c(=O)[nH]1)CCCC2` (centres undefined) was run?
The survival was inactive: 68%.

With `CC(C)OCCCN1C(=O)c2[nH]nc(-c3ccccc3O)c2C1c1ccc(OCc2ccccc2)cc1` (centres undefined) as the compound, how does the survival read?
Its survival is active: 28%.

Which survival does the source give for `CCc1cccc(CC)c1NC1=NS(=O)(=O)c2ccccc21` here?
Its survival is inactive: 70%.

Which survival does the source give for `Cc1ccc(NS(=O)(=O)c2ccc3c(c2)NC(=O)CCS3)c(Br)c1` here?
Its survival is active: -1%.

`CC(=O)Nc1ccc(C(=O)CSc2ncn(-c3ccccc3)n2)cc1` was tested. Which survival did it give?
Its survival is inactive: 95%.

For `COc1ccc(OCc2nnc(-c3ccccc3)o2)cc1`, which survival is on record?
The survival was inactive: 106%.

For `CCOc1ccc(S(=O)(=O)N2CCN(c3ccccc3)CC2)cc1C(N)=O`, which survival is on record?
The survival was inactive: 185%.

`CC1CCCC(C)N1C(=O)CSc1ccc(-c2ccc3c(c2)OCCO3)nn1` (centres undefined) was tested. Which survival did it give?
The survival was inactive: 91%.

`Cc1ccc(Nc2c(-c3ccccc3O)nc3ccc(Br)cn23)cc1` was tested. Which survival did it give?
Its survival is inactive: 92%.

How did the survival turn out when `CC(C(=O)NCc1ccco1)N1CCN(C)CC1` (centres undefined) was run?
Its survival is inactive: 95%.

For `Cc1cccc(NC(=O)CSc2nc3c([nH]c4ccccc43)c(=O)n2C)c1`, which survival is on record?
Its survival is inactive: 89%.

How did the survival turn out when `COc1ccc2c(Sc3ccc(Cl)cc3)c(C(=O)NCCCN3CCCCC3)[nH]c2c1` was run?
The survival was active: -1%.

For `CCOC(=O)c1sc(NC(=O)COc2ccccc2Cl)c(C(=O)OCC)c1C`, which survival is on record?
Its survival is inactive: 96%.

`O=C(Nc1ccc(O)c(-c2nc3ccccc3o2)c1)c1ccco1` was tested. Which survival did it give?
Its survival is inactive: 71%.

For `Cc1cc(=O)n(CC(=O)O)c2ccccc12`, which survival is on record?
The survival was inactive: 101%.

Which survival does the source give for `Cc1ccccc1NC(=O)CSc1nc2c(oc3ccccc32)c(=O)n1-c1ccccc1F` here?
Its survival is inactive: 75%.

With `CC1CCN(C(=O)c2cc(-c3ccc(Cl)cc3)on2)CC1` as the compound, how does the survival read?
Its survival is inactive: 66%.

For `Oc1cccc(C(=S)N2CCCCC2)c1`, which survival is on record?
Its survival is inactive: 80%.

`O=C(NCCc1ccccc1)c1c[nH]c2ccc(S(=O)(=O)Nc3ccccc3F)cc2c1=O` was tested. Which survival did it give?
Its survival is inactive: 73%.

Which survival does the source give for `COc1cc(C(=O)Nc2ccc(OCc3cc(=O)n4cc(C)sc4n3)cc2)cc(OC)c1OC` here?
The survival was inactive: 117%.

With `O=C(CSc1ccc2ccccc2n1)Nc1nsc(-c2ccc(Cl)cc2)n1` as the compound, how does the survival read?
Its survival is inactive: 57%.

How did the survival turn out when `CC(=O)Nc1ccc(-c2nn[nH]n2)cc1` was run?
The survival was inactive: 95%.

`COc1ccc(-n2ccn(Cc3ccc(C)cc3)c(=O)c2=O)cc1OC` was tested. Which survival did it give?
The survival was inactive: 73%.

For `O=C(c1ccc2c(c1)N(Cc1ccc(F)cc1)C(=O)c1ccccc1S2(=O)=O)N1CCC(Cc2ccccc2)CC1`, which survival is on record?
Its survival is inactive: 72%.

For `CC(=O)N1c2nc(-c3ccco3)nn2C2(CCCCC2)[C@@H]2CCCC[C@@H]21`, which survival is on record?
The survival was inactive: 81%.

For `COc1ccc(NC(=O)CN(C)S(=O)(=O)c2ccc3[nH]c4c(c3c2)CCCC4)cc1Cl`, which survival is on record?
Its survival is inactive: 88%.

For `CCOc1ccccc1NC(=O)CN1CCC(NC(=O)Nc2ccccc2)CC1`, which survival is on record?
Its survival is inactive: 102%.

`Cc1cccc(-n2c(=O)c3c(c4cc(C)ccc4n3C)n(Cc3ccccc3F)c2=O)c1` was tested. Which survival did it give?
The survival was inactive: 107%.

For `COc1ccc(Cn2c(SCc3ccc(C(=O)NCc4ccccc4F)cc3)nc3cccnc32)cc1`, which survival is on record?
The survival was inactive: 74%.

Which survival does the source give for `CCOc1ccc(S(=O)(=O)N(CC(=O)N2CCCCC2)c2ccccc2)cc1` here?
Its survival is inactive: 60%.

Which survival does the source give for `CC1=C(C(=O)OCC2CCCCC2)C(c2c(F)cccc2Cl)CC(=O)N1` (centres undefined) here?
The survival was inactive: 77%.

How did the survival turn out when `COc1ccc(CCNC(=O)CCc2c(C)nc3nc(C)nn3c2C)cc1OC` was run?
The survival was inactive: 92%.

Which survival does the source give for `COc1ccc(C)cc1NC(=O)CCS(=O)(=O)c1ccc2c(c1)CC(=O)N2C` here?
The survival was inactive: 61%.

Which survival does the source give for `CCc1ccc(S(=O)(=O)c2nnn3c2nc(NC2CCCC2)c2sccc23)cc1` here?
Its survival is inactive: 62%.

Which survival does the source give for `COc1cc(OC)c(NC(=O)Nc2ccccc2OCc2cc(=O)n3cc(C)ccc3n2)cc1Cl` here?
The survival was inactive: 103%.

With `COCCNC(=O)c1cc(Sc2ccc(F)cc2F)nc2ccccc12` as the compound, how does the survival read?
Its survival is inactive: 92%.

`COc1cccc(Cn2c(=O)n(-c3ccc(Br)cc3F)c(=O)c3sc4ccccc4c32)c1` was tested. Which survival did it give?
The survival was inactive: 96%.

`CCOc1cccc2cc(-c3nc4sc5c(c4c(=O)[nH]3)CCC(C)C5)c(=O)oc12` (centres undefined) was tested. Which survival did it give?
The survival was inactive: 103%.

Which survival does the source give for `CCCCNC(=O)CSc1nc2ccccc2nc1Cc1ccc(Cl)cc1` here?
The survival was inactive: 124%.

With `COc1ccc(NC(=O)CCNS(=O)(=O)c2cccc3nsnc23)cc1OC` as the compound, how does the survival read?
Its survival is inactive: 65%.

For `COc1ccc(N(Cc2ccccc2)C(=O)c2nc(SC)ncc2Cl)cc1`, which survival is on record?
The survival was inactive: 99%.

`Cc1ccc(Cl)cc1N1C(=O)N(Cc2ccc(C#N)cc2)c2ccccc2S1(=O)=O` was tested. Which survival did it give?
Its survival is inactive: 79%.

For `COc1ccc(C2=Nc3ccc(C)cc3NC(c3ccc(Cl)cc3)=N2)cc1`, which survival is on record?
Its survival is inactive: 60%.

`COc1ccc(Cl)cc1NC(=O)CCCn1c(C)c2cnn(-c3ccccc3)c(=O)c2c1C` was tested. Which survival did it give?
Its survival is inactive: 67%.

Which survival does the source give for `COc1ccc(CNC(=O)c2cccc(NC(=O)N3CCSc4ncccc43)c2)cc1` here?
Its survival is inactive: 89%.

How did the survival turn out when `COc1ccc(-c2noc(N3CCC(C(=O)Nc4ccc(C)c(F)c4)CC3)n2)cc1OC` was run?
The survival was inactive: 57%.

With `O=C(c1cnn2c(C(F)F)cc(-c3ccccc3)nc12)N1CCc2ccccc21` as the compound, how does the survival read?
Its survival is inactive: 78%.

Which survival does the source give for `Cc1ccc(OCCn2nnc3sc4c(c3c2=O)CCC(C(C)(C)C)C4)cc1` (centres undefined) here?
The survival was inactive: 50%.

`CCn1c(CN2CCC(C)CC2)nc2cc(NC(=O)COc3ccc([N+](=O)[O-])cc3)ccc21` was tested. Which survival did it give?
The survival was inactive: 82%.

`CC(C)c1ccc(NC(=O)c2cccn2-c2nnc(N3CCCCC3)s2)cc1` was tested. Which survival did it give?
The survival was inactive: 74%.

Which survival does the source give for `CCCOc1cccc(C(=O)N(Cc2cc(OC)c(OC)c(OC)c2)C2CCS(=O)(=O)C2)c1` (centres undefined) here?
The survival was active: 43%.

With `CCN(CC)CCCNC(=O)Cn1c(-c2cccs2)cc2cc(Cl)ccc21` as the compound, how does the survival read?
The survival was inactive: 81%.

For `O=C(CCCCn1c(=O)[nH]c2ccsc2c1=O)N1CCN(c2cccc(Cl)c2)CC1`, which survival is on record?
Its survival is inactive: 68%.

Which survival does the source give for `Cc1ccc(CSc2nc3ccc(NC(=O)COc4ccccc4F)cc3s2)cc1` here?
Its survival is inactive: 83%.

For `CCOC(=O)c1c(C)oc2c(Cl)cc(NS(=O)(=O)c3ccc(Cl)c(C)c3)cc12`, which survival is on record?
Its survival is inactive: 104%.

How did the survival turn out when `CCOC(=O)c1c(C)[nH]c(C)c1S(=O)(=O)N(C)CC(=O)N1CCN(c2ccccc2OC)CC1` was run?
The survival was inactive: 119%.
